In all, about 33,000 sequences were measured (“E-score (-0.5 to 0.5)”: median about -0.021, highest 2% from about 0.32 on). The list shows a part of the results.
Target: T1, Zap1 (UniProt P47043)
T1 sequence: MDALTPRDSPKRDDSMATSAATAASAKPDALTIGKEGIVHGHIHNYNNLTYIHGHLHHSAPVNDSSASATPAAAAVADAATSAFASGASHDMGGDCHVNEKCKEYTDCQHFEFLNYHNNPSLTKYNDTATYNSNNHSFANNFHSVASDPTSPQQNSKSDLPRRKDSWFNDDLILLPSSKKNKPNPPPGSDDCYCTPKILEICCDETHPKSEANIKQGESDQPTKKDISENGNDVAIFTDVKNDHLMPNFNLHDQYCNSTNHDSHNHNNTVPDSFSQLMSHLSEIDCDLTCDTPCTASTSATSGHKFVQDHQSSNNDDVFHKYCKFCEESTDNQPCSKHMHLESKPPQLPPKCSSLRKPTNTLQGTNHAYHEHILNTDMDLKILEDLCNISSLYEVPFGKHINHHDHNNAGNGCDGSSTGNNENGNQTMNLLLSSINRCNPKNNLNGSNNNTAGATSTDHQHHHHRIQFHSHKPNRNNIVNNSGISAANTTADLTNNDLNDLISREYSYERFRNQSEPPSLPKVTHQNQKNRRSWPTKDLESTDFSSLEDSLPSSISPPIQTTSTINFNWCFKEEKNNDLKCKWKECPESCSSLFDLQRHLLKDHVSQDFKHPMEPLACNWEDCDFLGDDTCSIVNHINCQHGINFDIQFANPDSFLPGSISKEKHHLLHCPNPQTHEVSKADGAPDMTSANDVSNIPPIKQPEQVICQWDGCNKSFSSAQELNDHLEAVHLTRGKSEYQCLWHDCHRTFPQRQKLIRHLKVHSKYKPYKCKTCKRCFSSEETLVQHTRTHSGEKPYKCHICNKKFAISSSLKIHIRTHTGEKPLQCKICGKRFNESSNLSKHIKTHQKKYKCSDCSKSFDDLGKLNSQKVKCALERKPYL
Assay: PBM E-score (8-mer binding enrichment) (E-score (-0.5 to 0.5)); higher = stronger / more preferred TF binding; most listed sequences are background and not binding sites
Conditions: protein concentration: 200 nM; construct: GST-full length
Procedure, shortened: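 Using PURExpress in vitro transcription/translation, GST-tagged yeast transcription factors were made in full-length or DNA-binding-domain form. These were applied at about 100-200 nM to double-stranded universal all-10-mer Agilent arrays, and bound protein was detected with fluorescent anti-GST. Scans were normalised with masliner before the Universal PBM Analysis Suite assigned E-scores to ungapped eight-base words pooled with their reverse complements.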

Sequence	PBM E-score
GCTAGTAA	0.0477
ACTCCAGG	0.0527
AGGTTCAC	0.108
CGCGTGAG	0.0356
AGCGAGCT	0.0182
GACCGGTA	0.105
AAACTACT	0.0804
GGGTCATA	0.432
AACACGGG	-0.0877
ACAAATCC	0.0813
CCGTAAGC	0.0194
GTGGTCGA	-0.116
AGACGCAC	-0.2
AGATCCTA	-0.131
CCTCGCCA	-0.241
GGCGGCTA	-0.0211
TTCGAGAA	0.0472
CACCTTGA	0.179
ACCCACGC	0.199
CCACGTGG	-0.0253
GACTGGCC	-0.254
CCACGTGC	-0.0778
AAGACTAC	-0.0648
GCATCAAA	0.169
ATAGACTA	0.0763

Sequence	PBM E-score
CCCACTAC	0.0184
AAGCAAGT	-0.0851
CATCTACA	-0.0824
ATCCAAGC	-0.2
CCGAGTCG	-0.139
AACCTGCG	0.14
TAACGGCA	-0.0239
ACTCATGC	-0.147
ACTCTTAA	0.0408
ACACTCAC	-0.0309
CGCTTTCC	-0.107
CAGCCAAA	0.149
AAGTGGTG	-0.102
ACAGGTCT	-0.121
CATAAACA	0.17
GTGGAAAC	0.102
GAGTACAC	-0.0741
CTAGGTTA	0.42
CGTTTAGC	-0.122
ATTAGCGG	-0.0245
AAATTGAG	0.0218
AACCCTTG	0.444
ATCAGGCG	-0.157
ATAACCGC	0.459
AATGCACA	0.0382

Sequence	PBM E-score
CATCGGAA	0.0109
AGCTAATA	-0.0477
CGAATGCC	-0.267
CCTCATCG	-0.0583
ATGCCGCG	-0.0351
CTTTAGTC	-0.161
GAGGTAGA	-0.247
GCCAGTAC	0.0642
CTAGGGGC	-0.223
CTTAAACA	0.128
CTAGACTA	-0.0786
GACTGGAC	-0.168
ACTACTGG	-0.128
ATCGAGGG	0.0179
CTGTCAGC	-0.211
CGCAACCC	0.379
GATGCGGA	-0.0728
CGTCCGCC	-0.166
GGGTGCAC	-0.0872
CCAGATCA	0.0889
CCTGGAAC	-0.0392
ATAATACC	0.188
GTCTCTCA	-0.0344
AGGTCAAC	0.118
CCTGGCCA	-0.056

Sequence	PBM E-score
GCTAGAAC	-0.03
ATCGTCGA	-0.214
GGCTGTAC	-0.31
ATCGACCC	0.0733
GGGCTGCA	-0.2
AAGGATGG	-0.0996
GGTAATGA	0.255
CAAATTAG	0.209
AAATGTTA	0.0592
ACTGTCCC	-0.163
AAGAGGGC	-0.091
TAGTCGCA	-0.0884
CGAATGCG	-0.0632
CTCAGCCA	-0.13
TAATAAAA	0.266
GCCAAAAC	0.0209
CACACCCG	-0.0127
CAGGGCCA	-0.0969
CTGATTTC	-0.112
ACGATCCT	-0.175
AACGCTAT	-0.132
CAATATTC	-0.00773
CCAGGAAC	-0.243
ATGCGGGG	-0.137
CTCATTTA	-0.0145

Sequence	PBM E-score
CAGGATAA	0.122
AGGTCCAA	0.0416
AACGGATT	0.01
TCAAGGCA	-0.00733
GCAATGGC	-0.203
AGCCAGAA	-0.0361
CCTCGGAG	0.0286
AGACAGTC	-0.252
AACTGAAG	0.0753
CTCGGGAC	-0.0983
ACGGTGCA	0.0193
ACTGGGCG	-0.138
TACTGTGA	0.164
ACGTTGTA	-0.13
GGGACACC	0.0204
CAAGTGCC	-0.261
ACCGATAG	0.00318
TACAAAGA	0.124
CCGGACCG	-0.129
AGCAATCC	-0.185
GCTTGAAC	0.0357
CATCAGAG	-0.103
CCGGCGGA	-0.0497
GTAGATAA	0.16
ATATCAGA	0.0906

Sequence	PBM E-score
TCCTCCGA	-0.226
CGTGTTTC	-0.0154
TCGCCGAA	-0.0926
ACACAAGT	-0.0103
TAAGTCCA	-0.0588
ATTCTCTA	-0.0522
CCAGATGC	-0.0582
GACGCCCC	-0.125
CCAAAGAC	0.00166
ATCGCCAG	-0.293
ATAACCAG	0.436
AAGCGTAG	-0.19
AATGAGAT	0.149
GCTAGACC	-0.149
GTTACGTA	0.124
CATAGAAA	0.203
ATGCAGGA	-0.175
AGCTCCCT	-0.284
GCTCTGGA	-0.0859
AGCGATCC	0.0335
AACGATGT	0.00501
CAGGCATG	-0.0885
CAGCGACG	-0.248
CGCAAGAC	-0.129
AGGAGACG	-0.379

Sequence	PBM E-score
GCGGGATA	-0.037
CCACACAG	-0.0335
GCCATATA	0.0242
ATACATAA	0.173
CCAATTCA	0.00723
CTTAAGTA	-0.0613
GGTAAATA	0.157
CCTGTACA	0.0402
ACGGAGGG	-0.116
AGCATGGC	-0.273
CATGTGCA	0.0255
AGTTACCA	0.263
ACTGGGAA	-0.0602
GAAGTATC	0.0765
ACGTGAGT	-0.107
ATCTACGA	-0.302
AAGTTATG	0.181
CAACCAGG	0.0949
ACCTATAT	0.356
AGAGCACA	0.0518
TACGACCA	0.0572
AATCGCTC	-0.283
CCGGTAGA	0.104
CCGCGATA	0.0426
CATTTTAA	0.152

Sequence	PBM E-score
AGCTCCAG	-0.173
GCACGAGA	-0.148
GCCGGTTA	0.33
CAATTAGA	0.0974
CACGTGAC	-0.156
AATAATCA	0.0545
CCATCGGC	-0.194
CTCTTCAC	-0.166
CATCATGG	-0.0268
GCTTTTGA	-0.264
CCGGTGTC	0.0219
ACTTGGTG	-0.0637
ACAGCGTG	-0.0621
AGAGAACT	-0.219
CGCACGAA	0.0172
AGCCCGAA	-0.194
CAAGTCGA	-0.236
GACTTCAA	-0.129
GGTTTATA	0.176
GATCGTCA	-0.131
AAGAGCAG	-0.247
ACTCGGAT	0.00649
AAGCTATG	-0.106
GCACAACA	0.0549
TCGCTCCA	-0.181

Sequence	PBM E-score
ACCACTGC	0.0869
CCCCGCGG	0.278
AGGACGCA	-0.0678
GGTCGCTA	-0.0836
CATCAGCC	-0.0837
CACCGAGG	0.0545
AACGCGGG	-0.0658
AATGAAAC	0.198
GATCAAGA	0.0771
ACCCTGGG	0.376
AAACTCGG	0.115
ACCTCCTG	0.0171
GCGATCCA	0.052
AGACGCCA	-0.0612
TACCTTCA	0.255
AGATATTA	-0.133
CCAGCCAG	-0.439
GGACTGGA	-0.164
AGGCTATA	0.0633
CATGATCA	0.247
CCAGAGGC	-0.0501
CTGCATTA	-0.229
TAAGAGTA	0.165
CGACGCCC	-0.0334
CCGCTTAA	0.0268

Sequence	PBM E-score
ACCTGGGG	-0.192
AAAGAGTC	-0.0763
AAGTGTCT	-0.177
ATTTACAG	-0.00411
ACAGATTC	0.044
GCACCGCA	-0.0256
GTACATAA	0.127
TGTCGACA	-0.0307
AGGTGAAG	0.0597
GCCGCCCC	-0.0313
AAGGAATT	-0.194
ACCGCCAC	0.0201
ACTGCAGC	-0.184
ATCGGCAA	-0.271
CTGCTGCC	-0.214
ATCTCTTA	-0.218
GGTAGACA	-0.0227
AGAGTCCC	-0.218
ATGTGCAC	-0.178
AAGCAGCT	-0.115
GCATAGAA	0.068
CATCCCCA	-0.0691
CAAGCGAG	0.00033
AATAGAGA	-0.242
ACGAACGG	-0.0781

Sequence	PBM E-score
GTGGAGTA	-0.143
ACGTCTCG	-0.228
CATTAATA	0.183
ACCCAGTA	0.0842
AACCGTGG	0.14
CCGCGCGC	0.0679
AAGAATTG	-0.0347
GATGCGCC	-0.0154
CAACTGGA	-0.105
GACACACC	0.0913
TGAGCCAA	-0.12
CTATGCAC	-0.181
ATGGGAGC	-0.116
TAGCCATA	-0.138
ACGCTAGC	-0.181
AGAATTAC	0.142
GCTAGAAA	0.152
CCAGACCA	0.115
GAATGTCA	-0.253
CTCACACA	-0.0262
AATGTGTC	-0.0457
CCATCCCA	-0.0802
TGACACAA	0.0925
CGTTCTCA	-0.0832
CCCTTAGA	0.129

Sequence	PBM E-score
CAACCATC	-0.0615
GGTTCGAC	0.00298
CAGAGAGC	-0.282
AACGGGCC	-0.162
ACTACGCA	-0.143
AGTGCATA	-0.0475
ATCTCCCC	-0.205
ACAAATTA	0.142
ATGGGTCA	0.359
CCCGACAC	-0.214
CAAGTTGG	0.121
ATCCCATA	0.117
AGTCACAA	0.161
ATACTGCG	-0.0551
CATGGTCC	0.0076
GTATGAGA	0.0741
CATGCGGC	-0.0959
ATAGCAAA	0.113
GCAAGCCC	-0.1
AAGCGCGG	-0.169
ATGAGGAA	0.0546
CCAAGCGA	-0.12
GATGCATA	-0.178
CCCCCCCA	-0.335
ACTGGTGA	-0.0129

Sequence	PBM E-score
CCTTAATA	0.167
CACTCTCC	-0.118
CAAGATAG	-0.0554
GGTACAGA	0.159
GCGATTAC	-0.0228
CATCCTGC	-0.302
GACCGCGA	0.259
CCACTCAC	0.00202
GCGTGAGA	-0.0239
ATTTTTGC	0.061
ATTGTCGG	-0.123
AACCTTTC	0.324
CGGAAAAG	-0.103
CTAGAGCC	-0.285
CCACAACC	0.411
AACCAGCA	0.3
AAGAGAGT	-0.196
GGTATCAA	0.0873
AGCACGAG	-0.11
CGAGAACG	-0.143
ATGTCGCG	0.0309
AGGGATCC	-0.152
ACTTGTTC	-0.00394
GCGAGACC	0.2
GCTGACCA	0.161

Sequence	PBM E-score
GAAGAACC	0.111
AATGAATT	0.123
CCTCCCGC	-0.0216
ACAGGACC	0.0616
AGACCGAT	0.0418
AGCATCCC	-0.16
CACATGGG	-0.117
AGTGGGTA	0.112
GTTGGGGA	-0.00188
AAAAACGA	0.212
TATGGGAA	-0.0198
ACTACAAC	0.119
CACGCAGA	-0.0783
TCTCCGCA	-0.174
CAGGTACC	0.415
AGTCTGCG	-0.275
GAACGGGC	-0.264
CCTCCTCG	-0.229
GAAGCGTC	-0.275
